# According to PubChem BioAssay AID504466 (National Center for Advancing Translational Sciences (NCATS), 2011):
# Hit rate of the full screen: of about 330,000 compounds, about 4,200 (1.3%) were called active. The inconclusive results got no clear call from the source; some entries with a clear call stand among them for comparison. The call rests on the fitted dose curve; in most records, active means well fitted activation curve with a large enough effect; inconclusive means small, poorly fitted or top-dose-only effect; inactive means no such curve, though single readings can be large or run the other way. Potencies beside an inconclusive call are fits to weak or partial responses and may not hold up.
# Assay: qHTS screen for small molecules that induce genotoxicity in human embryonic kidney (HEK293T) cells expressing luciferase-tagged ELG1; further: nearly all actives have a fitted effect of over 60% in size; on activity change, positive = activation: % of control where 0% means no effect
# Conditions: HEK293T ELG1-luciferase reporter, luminescence, 16 h; series mostly up to 46 µM; activity change, positive = activation: at the top concentration
# How it was run: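 Screening used a luciferase reporter fused to human ELG1 in HEK293T cells. Luminescence was read on a CCD plate imager after 16 hr exposure and 30 min ONE-Glo incubation.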
# Potency means the concentration at half of the fitted maximal effect; tags describe the fitted curve by direction and shape.
Compound,Potency,"activity change, positive = activation"
COc1cc(-c2cc(N)n(S(=O)(=O)c3ccccc3)n2)cc(OC)c1OC,"inconclusive: 23.1 µM [activator, single point]",
CCCn1c(-c2ccc[nH]c2=O)nc2cc(C)c(C)cc21,"inconclusive: 11.6 µM [activator, partial curve, poor fit]",
Cc1cccc(Nc2ncnc3c2cnn3C)c1,"inconclusive: 20.6 µM [activator, partial curve, poor fit]",
Nc1cccc(-c2nc3ccc(C(=O)c4ccccc4)cc3[nH]2)c1,"inconclusive: 1.64 µM [activator, partial curve]",
NC(=O)[C@@H]1CCCN1C(=O)c1ccc2oc(CCc3ccccc3)nc2c1,"inconclusive: 16.4 µM [activator, single point]",
COc1cccc(N=Nc2c(N)[nH][nH]c2=O)c1,"inconclusive: 23.1 µM [activator, partial curve, poor fit]",
Cc1noc(C)c1CSc1nc2ccccc2s1,"inconclusive: 23.1 µM [activator, single point]",
Cc1ccc(NC(=O)Nc2nnc(Cc3ccc(F)cc3)s2)cc1,"inconclusive: 25.9 µM [activator, partial curve, poor fit]",
O=C(COc1ccccc1)Nc1nc2cc3c(cc2s1)OCCO3,"inconclusive: 23.1 µM [activator, single point]",
C(=N\Nc1nncc2ccccc12)/c1ccccc1,"inconclusive: 0.517 µM [activator, full curve, poor fit]",
COC(=O)c1cccc(NC(=O)CSc2nnnn2C)c1,"inconclusive: 29.1 µM [activator, partial curve, poor fit]",
O=S(=O)(NCc1cc(-c2ccc(Cl)cc2)no1)c1ccccc1,,inactive: 2.83%
N/C(=N\OC(=O)c1cccc(C(F)(F)F)c1)c1cnccn1,"inconclusive: 6.51 µM [activator, partial curve]",
O=C(Nc1cccc([N+](=O)[O-])c1)C(=O)N1CCCCC1,"inconclusive: 13 µM [activator, partial curve]",
COCCNC(=O)c1ccc2c3n(nc2c1)-c1ccc(C)cc1CO3,"inconclusive: 2.91 µM [activator, full curve, poor fit]",
Cc1cccc(-n2nnnc2SCn2nnc3ccccc3c2=O)c1,,inactive: -2.88%
Cc1nc2ccc(C(=O)OCc3nnc(-c4ccccc4)o3)cc2nc1C,,inactive: -1.03%
CCOC(=O)C1=CNS(=O)(=O)NC1c1ccc(C(=O)OC)cc1 (stereo not given),,inactive: 5.25%
Oc1ccc(-c2csc(-c3cccnc3)n2)c(O)c1,"inconclusive: 5.8 µM [activator, partial curve]",
CNC(=O)COc1coc(CN2CCN(c3ccccc3OC)CC2)cc1=O,,inactive: 5.01%
Oc1ccccc1-c1cc(-c2ccccc2)n[nH]1,"inconclusive: 4.61 µM [activator, partial curve]",
CC1CCN(C(=O)Nc2ccc3nsnc3c2)CC1,"inconclusive: 16.4 µM [activator, partial curve, poor fit]",
CC1CCC(NC(=O)Nc2cccs2)CC1 (stereo not given),"inconclusive: 23.1 µM [activator, partial curve, poor fit]",
Nc1nc(-c2cc(O)ccc2[N+](=O)[O-])cc(-c2ccccc2)c1[N+](=O)[O-],"inconclusive: 18.3 µM [activator, single point]",

Compound,Potency,"activity change, positive = activation"
CCCOc1cccc(C(=O)Nc2ccc3c(c2)OCCO3)c1,active: 2.31 µM,
N#C/C(=C\c1cn(CCOc2ccccc2)c2ccccc12)C(=O)NCc1ccco1,"inconclusive: 29.1 µM [activator, partial curve, poor fit]",
O=C(O)c1cc(N/N=C/C=C/c2ccccc2)ccc1Cl,active: 9.2 µM,
Cc1cc(Cl)ccc1OCC(=O)N1C(C)CCCC1C (stereo not given),"inconclusive: 23.1 µM [activator, single point]",
c1ccc(-c2noc(-c3cccs3)n2)nc1,"inconclusive: 1.3 µM [activator, partial curve]",
Cc1cccc(Nc2nc(N)nc(CSc3nccn3C)n2)c1,"inconclusive: 25.9 µM [activator, partial curve, poor fit]",
COc1ccc(-n2c(=O)/c(=C\c3cccs3)s/c2=C(/C#N)C(=O)N2CCN(C)CC2)cc1,"inconclusive: 16.4 µM [activator, partial curve, poor fit]",
CC1CCCN(Cc2csc(N)n2)C1 (stereo not given),,inactive: -1.91%
COc1ccc(/C=C/c2nc3ccccc3n2C)cc1,"inconclusive: 0.0651 µM [activator, partial curve, poor fit]",
CCOc1ccc(N=C(/C(C(=O)C(=O)N2CCOCC2)=C(/O)c2ccccc2)c2ccccc2)cc1,"inconclusive: 20.6 µM [activator, single point]",
Clc1ccc(OCCN2CCOCC2)cc1Cl,"inconclusive: 16.4 µM [activator, partial curve, poor fit]",
CCC(=O)Nc1ccc2c(c1)ncn2-c1ccc(C)cc1,"inconclusive: 6.51 µM [activator, single point]",
COC(=O)c1ccc(NCCc2csc(-c3ccc(C)cc3)n2)c([N+](=O)[O-])c1,"inconclusive: 29.1 µM [activator, single point]",
O=[N+]([O-])c1cccc(-c2nnc(-c3ccc4c(c3)OCO4)o2)c1,"inconclusive: 11.6 µM [activator, partial curve]",
N#Cc1ccc(Cl)cc1NC(=O)COC(=O)c1cccc(S(=O)(=O)N2CCOCC2)c1,,inactive: 1.33%
O=C(Nc1ccccc1F)c1ccc([N+](=O)[O-])s1,,inactive: 0.689%
O=C(Nc1cccc(F)c1)c1coc(=O)c(Br)c1,"inconclusive: 20.6 µM [activator, single point]",
CN(C(=O)c1ccc2c(c1)OCO2)C1CCCCC1,"inconclusive: 10.3 µM [activator, partial curve]",
COc1ccc(NC(=O)C2Cc3ccccc3CN2C(=O)c2ccco2)cc1 (stereo not given),"inconclusive: 23.1 µM [activator, partial curve, poor fit]",
O=C(Nc1cccc(-c2cn3ccccc3n2)c1)C1CC1,"inconclusive: 20.6 µM [activator, single point]",
COc1ccc(Br)cc1CN(C)C(C)C(=O)Nc1cc([N+](=O)[O-])ccc1OC (stereo not given),,inactive: -2.04%
COc1cc(NC(=O)CN2c3cccc4cccc(c34)S2(=O)=O)cc(OC)c1OC,,inactive: 11%
O=C(CSc1nnc(-c2ccc(F)cc2)o1)N1CCCC1,"inconclusive: 23.1 µM [activator, single point]",
CC(C)(C)OC(=O)N[C@@H](Cc1ccccc1)[C@H](O)c1ccco1,,inactive: 0.094%

Compound,Potency,"activity change, positive = activation"
COc1c(O)cc2oc(-c3ccc(O)cc3)cc(=O)c2c1O,active: 9.2 µM,
O=C(Nc1ccccc1C(=O)O)/C(=C/c1ccc(Cl)cc1Cl)NC(=O)c1ccco1,,inactive: 1.31%
CC1=C(C(=O)OCC2CCCCC2)C(c2ccc(O)cc2)NC(=O)N1 (stereo not given),,inactive: 0.187%
Cc1cccc(C(=O)NNC(=O)c2ccccc2O)c1,"inconclusive: 14.1 µM [activator, single point]",
COc1ccc(C(=O)Nc2cc3c4c(c2)CC(=O)N4CCC3)cc1,"inconclusive: 16.4 µM [activator, partial curve, poor fit]",
Cc1ccc(C(=O)/C=C/c2ccc3c(c2)OCCO3)c(O)c1,"inconclusive: 7.3 µM [activator, partial curve]",
NC(=O)Cn1nnc(-c2ccc(NC(=O)c3ccc(F)cc3)cc2)n1,"inconclusive: 18.3 µM [activator, single point]",
Cn1c(O)c(N=NC(=O)c2ccccc2O)c2ccccc21,active: 7.3 µM,
COc1cccc(NC(=O)c2ccn(C)n2)c1,"inconclusive: 11.6 µM [activator, partial curve, poor fit]",
COC(=O)c1ccc(/C=N/N2C(C)CCCC2C)cc1 (stereo not given),"inconclusive: 18.3 µM [activator, partial curve]",
CC(C)(C)OC(=O)N/N=C\c1ccc(OC(=O)c2ccco2)cc1,"inconclusive: 16.4 µM [activator, partial curve, poor fit]",
OCCN=c1cc(-c2ccccc2)oc2ccc(Cl)cc12,"inconclusive: 18.4 µM [activator, partial curve, poor fit]",
COc1ccc(NCc2nc3ccccc3n2C)cc1,active: 5.17 µM,
O=c1[nH]c(/C(=N\O)c2ccccc2)no1,"inconclusive: 32.6 µM [activator, partial curve, poor fit]",
CSc1ccccc1NC(=O)C1CC(c2c(F)cccc2Cl)=NO1 (stereo not given),"inconclusive: 23.1 µM [activator, partial curve, poor fit]",
CCOc1ccc(-c2nc[nH]c2[N+](=O)[O-])cc1,,inactive: 8.89%
N/C(=N\OC(=O)c1cccc(Cl)c1)c1ccncc1,"inconclusive: 20.6 µM [activator, partial curve]",
Cc1cc(C)cc(N=c2c([N+](=O)[O-])nn(-c3ccc4c(c3)OCCO4)n2O)c1,,inactive: -12.5%
O=C(Nc1ccc(CN2CCOCC2)cc1)c1cc2ccccn2n1,"inconclusive: 0.651 µM [activator, full curve]",
Clc1ccc(-c2nc3cc(CN4CCCCC4)ccc3o2)cc1,"inconclusive: 14.6 µM [activator, partial curve, poor fit]",
COc1cc(Cl)ccc1OCc1cc(C(=O)N(C)Cc2nnc(C)o2)no1,"inconclusive: 25.9 µM [activator, single point]",
COc1ccc(-c2cn3ccccc3n2)cc1,active: 1.3 µM,
